Experimental data reported in the supplement of paper PMC4967469.

Legend:
Assay in all cases: Viability of human cancer cell lines after 72 h of drug (GDSC screen)
QL-XI-92 = compound: C=CC(=O)Nc1cc(NC(=O)c2ccc(C)c(NC(=O)c3ccno3)c2)cc(C(F)(F)F)c1 [QL-XI-92]; settings: top dose 10.24 µM; top dose inferred
Description: (§1)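 Human cancer cell lines in 384-well plates, medium with 10% serum, drug for 72 h over a 256-fold dose range (nine 2-fold or five 4-fold steps up to the top dose). Adherent lines were fixed and stained with the nucleic acid dye Syto60, suspension lines read with resazurin; signal relative to control wells, capped at 0 and 100%. One two-parameter sigmoid per drug and line, fitted in a mixed model over all curves with the slope shared within a line.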

AG-014699 = compound: CNCc1ccc(-c2[nH]c3cc(F)cc4c3c2CCNC4=O)cc1 [AG-014699]; settings: top dose 5 µM; top dose inferred
Description: as §1

WHI-P97 = compound: COc1cc2ncnc(Nc3cc(Br)c(O)c(Br)c3)c2cc1OC [WHI-P97]; settings: top dose 10.24 µM; top dose inferred
Description: as §1

S-Trityl-L-cysteine = compound: N[C@@H](CSC(c1ccccc1)(c1ccccc1)c1ccccc1)C(=O)O [S-Trityl-L-cysteine]; settings: top dose 5.12 µM; top dose inferred
Description: as §1

Vinorelbine = compound: CCC1=C[C@@H]2CN(C1)Cc1c([nH]c3ccccc13)[C@@](C(=O)OC)(c1cc3c(cc1OC)N(C)[C@H]1[C@@](O)(C(=O)OC)[C@H](OC(C)=O)[C@]4(CC)C=CCN5CC[C@]31[C@@H]54)C2 [Vinorelbine]; settings: top dose 0.064 µM; top dose inferred
Description: as §1

NU-7441 = compound: O=c1cc(N2CCOCC2)oc2c(-c3cccc4c3sc3ccccc34)cccc12 [NU-7441]; settings: top dose 2 µM; top dose inferred
Description: as §1

XL-184 = compound: COc1cc2nccc(Oc3ccc(NC(=O)C4(C(=O)Nc5ccc(F)cc5)CC4)cc3)c2cc1OC [XL-184]; settings: top dose 5.12 µM; top dose inferred
Description: as §1

Erlotinib = compound: C#Cc1cccc(Nc2ncnc3cc(OCCOC)c(OCCOC)cc23)c1 [Erlotinib]; settings: top dose 2 µM
Description: as §1

EHT 1864 = compound: O=c1cc(CN2CCOCC2)occ1OCCCCCSc1ccnc2cc(C(F)(F)F)ccc12 [EHT 1864]; settings: top dose 10 µM; top dose inferred
Description: as §1

Gefitinib = compound: COc1cc2ncnc(Nc3ccc(F)c(Cl)c3)c2cc1OCCCN1CCOCC1 [Gefitinib]; settings: top dose 0.5 µM
Description: as §1

Phenformin = compound: N=C(N)NC(=N)NCCc1ccccc1 [Phenformin]; settings: top dose 4000 µM; top dose inferred
Description: as §1

Cell Line | AUC (QL-XI-92) | IC50 (QL-XI-92) [µM] | AUC (AG-014699) | IC50 (AG-014699) [µM] | AUC (WHI-P97) | IC50 (WHI-P97) [µM] | AUC (S-Trityl-L-cysteine) | IC50 (S-Trityl-L-cysteine) [µM] | AUC (Vinorelbine) | IC50 (Vinorelbine) [µM] | AUC (NU-7441) | IC50 (NU-7441) [µM] | AUC (XL-184) | IC50 (XL-184) [µM] | AUC (Erlotinib) | IC50 (Erlotinib) [µM] | AUC (EHT 1864) | IC50 (EHT 1864) [µM] | AUC (Gefitinib) | IC50 (Gefitinib) [µM] | AUC (Phenformin) | IC50 (Phenformin) [µM]
NB10 (neuroblastoma, adherent) | 0.988 | > 10.2 | 0.915 | > 5 | 0.988 | > 10.2 | 0.97 | > 5.12 | 0.918 | > 0.064 | 0.984 | > 2 | 0.93 | > 5.12 | 0.823 | 1.15 | 0.941 | > 10 | 0.943 | > 0.5 | 0.931 | > 4000
NB(TU)1-10 (neuroblastoma, adherent) | 0.993 | > 10.2 | 0.992 | > 5 | 0.959 | > 10.2 | 0.884 | 4.26 | 0.909 | > 0.064 | 0.986 | > 2 | 0.857 | 3.3 | 0.991 | > 2 | 0.956 | > 10 | 0.968 | > 0.5 | 0.993 | > 4000
NCI-H82 (small cell lung carcinoma, suspension) | 0.983 | > 10.2 | 0.989 | > 5 | 0.987 | > 10.2 | 0.716 | 1.25 | 0.883 | 0.0626 | 0.974 | > 2 | 0.984 | > 5.12 | 0.95 | > 2 | 0.978 | > 10 | 0.97 | > 0.5 | 0.672 | 733
NCI-H209 (small cell lung carcinoma, suspension) | 0.847 | 8.39 | 0.712 | 1.3 | 0.962 | > 10.2 | 0.867 | > 5.12 | 0.813 | 0.0376 | 0.967 | > 2 | 0.924 | > 5.12 | 0.93 | > 2 | 0.966 | > 10 | 0.971 | > 0.5 | 0.975 | > 4000
NCI-H345 (small cell lung carcinoma, suspension) | 0.976 | > 10.2 | 0.989 | > 5 | 0.99 | > 10.2 | 0.91 | > 5.12 | 0.815 | 0.0376 | 0.99 | > 2 | 0.964 | > 5.12 | 0.99 | > 2 | 0.983 | > 10 | 0.99 | > 0.5 | 0.765 | 1530
NCI-H720 (lung carcinoid, suspension) | 0.992 | > 10.2 | 0.992 | > 5 | 0.989 | > 10.2 | 0.991 | > 5.12 | 0.992 | > 0.064 | 0.992 | > 2 | 0.992 | > 5.12 | 0.992 | > 2 | 0.985 | > 10 | 0.992 | > 0.5 | 0.838 | 2390
NCI-H1770 (non-small cell lung carcinoma, suspension) | 0.992 | > 10.2 | 0.992 | > 5 | 0.992 | > 10.2 | 0.934 | > 5.12 | 0.556 | 0.00558 | 0.992 | > 2 | 0.966 | > 5.12 | 0.992 | > 2 | 0.99 | > 10 | 0.99 | > 0.5 | 0.498 | 247
NCI-H1836 (small cell lung carcinoma, suspension) | 0.985 | > 10.2 | 0.988 | > 5 | 0.984 | > 10.2 | 0.832 | 3.74 | 0.767 | 0.0262 | 0.988 | > 2 | 0.983 | > 5.12 | 0.969 | > 2 | 0.983 | > 10 | 0.985 | > 0.5 | 0.686 | 879
NCI-H2135 (non-small cell lung carcinoma, adherent) | 0.923 | > 10.2 | 0.988 | > 5 | 0.977 | > 10.2 | 0.941 | > 5.12 | 0.828 | 0.0377 | 0.991 | > 2 | 0.91 | > 5.12 | 0.99 | > 2 | 0.875 | 9.35 | 0.991 | > 0.5 | 0.986 | > 4000
NCI-SNU-1 (stomach, suspension) | 0.932 | > 10.2 | 0.988 | > 5 | 0.927 | > 10.2 | 0.93 | > 5.12 | 0.807 | 0.0343 | 0.974 | > 2 | 0.884 | > 5.12 | 0.932 | > 2 | 0.861 | 8.95 | 0.985 | > 0.5 | 0.77 | 1570

By IC50 is meant the dose at which the fit gives 50% viability; fits outside the tested doses are given as limits. AUC sums up the same curve from the lowest dose to the 256-fold higher top dose; it is 1 without any effect and falls as sensitivity rises. For some of these results: A top dose marked as inferred was calculated from the reported fits.
